From patent publication US20130209396A1 (ELEVEN BIOTHERAPEUTICS, published 2013)

Biological target: T1, soluble recombinant human IL-1RI (corresponding to the extracellular domain of IL-1RI) (human, UniProt P14778 18-336)
T1 construct: extracellular domain; also called interleukin-1 receptor I; immobilized soluble IL-1RI
T1 sequence (looked up): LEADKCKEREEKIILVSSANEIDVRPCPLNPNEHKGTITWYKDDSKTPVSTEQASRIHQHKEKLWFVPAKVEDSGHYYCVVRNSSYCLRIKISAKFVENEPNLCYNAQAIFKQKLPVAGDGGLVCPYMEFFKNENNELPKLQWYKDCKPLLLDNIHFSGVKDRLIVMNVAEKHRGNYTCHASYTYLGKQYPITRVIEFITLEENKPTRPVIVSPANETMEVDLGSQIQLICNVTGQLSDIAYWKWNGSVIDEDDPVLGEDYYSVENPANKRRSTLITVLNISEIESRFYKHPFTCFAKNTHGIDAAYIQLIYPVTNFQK
Assay: SPR (Reichert SR7000DC), immobilized soluble human IL-1RI
Method: The binding properties of proteins for soluble recombinant human IL-1RI (corresponding to the extracellular domain of IL-1RI) were evaluated using surface plasmon resonance with a Reichert SR7000DC Dual Channel SPR system. Binding was evaluated in phosphate buffered saline with 0.005% Tween 20. […] Thus, the P01 protein bound to IL-1RI with a greater affinity than did IL-1β under similar conditions.

B1: IL-1Ra (human) (ligand)
chain: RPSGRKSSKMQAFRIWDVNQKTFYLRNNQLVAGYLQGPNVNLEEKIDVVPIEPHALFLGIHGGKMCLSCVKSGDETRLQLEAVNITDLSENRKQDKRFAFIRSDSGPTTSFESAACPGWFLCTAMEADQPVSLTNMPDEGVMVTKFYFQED
notes: also called IL-1 receptor antagonist
Kd: 0.326 nM
koff: 6.58e-05 s⁻¹
kon: 201000 M⁻¹ s⁻¹
